Read counts are not given, so values of variants with three or more changes are uncertain.

Our source for the self-cleavage values is the RNAGym collection of RNA variant scans (doi:10.7554/elife.90254).

B1: LINE1-mini (parent)
chain: GGCAGAGCUCAACACAGCGUGGCAAAGUGGCUGUGGCUAGACUGCC

The variants in this data set derive from B1. Nature of the data set: self-cleavage, relative activity (ratio to wild type); higher = more cleavage; in vitro, sequencing; the parent is a self-cleaving ribozyme.
Take A6U A16G G36U: the self-cleavage came to 0.09.

In the case of A6U A12C U28A C31U G33U, the self-cleavage amounted to 0.09.

On to A6U A16U G17A A24C C37G C46G, for which the self-cleavage amounted to 0.01.

As to A6U A24C A26G C37A U38G C45A, the self-cleavage came to 0.

For A6U C23A A26G G29C G40A, the self-cleavage worked out at 0.01.

As to A6U A14C C37A, the self-cleavage was found to be 0.98.

Regarding A6U C10A G17C G27C G35A, the self-cleavage turned out to be 0.

For the variant A6U A39C C45U, the self-cleavage was 0.32.

On to A6U A16U G17A C18U G22C, for which the self-cleavage turned out to be 0.09.

As for A6U A39G G40U, the self-cleavage was determined as 0.09.

As for A6G U32G U34C, the self-cleavage came to 0.02.

Consider A6U C10U A12C A25U G27U G33U U34C, for which the self-cleavage turned out to be 0.02.

Take A6U C13U C15U C31A C37G C42A: the self-cleavage stood at 0.21.

In the case of A6U A11C U38C C42U, the self-cleavage was determined as 0.04.

Turning to A6U C10A G19C, the self-cleavage is 0.02.

On to A6U C15U G33U G36U, for which the self-cleavage was determined as 0.06.

A6U G7C C8G A11G G29C: the self-cleavage amounted to 0.02.

Turning to A6U G17A U20C C37U, the self-cleavage stood at 0.02.

Take A6U C8G A16U G29U: the self-cleavage turned out to be 0.05.

On to A6U G7A C8U C13U A39C, for which the self-cleavage is 2.2.

Consider A6G U9G G35C A39G, for which the self-cleavage was 0.14.

Consider A6U G7A A14G, for which the self-cleavage was determined as 0.1.

As for A6U A25U A26C A39U C42G G44U, the self-cleavage turned out to be 0.02.

Take A6U C10U A16G A26C C37U A39C: the self-cleavage was determined as 0.

On to A6U A11G C13U U28A G40A, for which the self-cleavage turned out to be 0.02.

Regarding A6U C8A U43C, the self-cleavage came to 0.02.

For the variant A6U A16U G27C, the self-cleavage is 0.03.

On to A6U A25G G27U C37U U38G, for which the self-cleavage was found to be 0.01.

Take A6U C15A C37U G40U: the self-cleavage was found to be 0.

Regarding A6U C31G A41G C45G, the self-cleavage stood at 0.07.

A6U C8G G19A C23U: the self-cleavage was determined as 0.11.

On to A6G U20G G35A, for which the self-cleavage worked out at 0.08.

In the case of A6G U9C A39U, the self-cleavage turned out to be 0.05.

Take A6U A11G G17U: the self-cleavage was 0.02.

As to A6U C15G U20G U28C, the self-cleavage turned out to be 0.02.

As for A6U C8A G22U U32C, the self-cleavage is 0.05.

For the variant A6U A11C G29U, the self-cleavage came to 0.02.

A6U G17C U28C C37A: the self-cleavage was found to be 0.02.

Consider A6U A24U G30C G33A C45A, for which the self-cleavage was determined as 0.05.

For the variant A6U A11G A26U C31A U32G, the self-cleavage was found to be 0.02.

Consider A6U C10A G29U, for which the self-cleavage came to 0.01.

For A6U C23U C42U C46U, the self-cleavage was 0.42.

As for A6U C13A A16U G22U C23A C31A G40U, the self-cleavage is 0.12.

With A6G U9C C23U U28G G36U, the self-cleavage amounted to 0.04.

As to A6U C8G C23A, the self-cleavage amounted to 0.01.

With A6U C10A G44U, the self-cleavage was found to be 0.03.

On to A6G U9A U28C, for which the self-cleavage was 0.11.

Take A6U A25U G29U C31A: the self-cleavage came out at 0.1.

For the variant A6U A26G G36U U38G, the self-cleavage came to 0.01.

As for A6U C15U U20A A25U, the self-cleavage was 0.05.

Consider A6G U9A A12G A14C G17U G40A C42U, for which the self-cleavage was found to be 0.06.

In the case of A6U A16G G44U C45U C46A, the self-cleavage worked out at 0.06.

A6U C8G C13U C18A: the self-cleavage stood at 0.22.

For the variant A6U C8A G29A G36U A39G, the self-cleavage is 0.05.

Take A6G G35A C37U U43G: the self-cleavage is 0.09.

A6U A11G C23G A24C G36U A39U C45G: the self-cleavage was determined as 0.

As for A6U C18U C31A G33A, the self-cleavage came to 0.06.

As for A6U G7A G27U, the self-cleavage is 0.07.

In the case of A6U C8A A16U C18G G40A, the self-cleavage amounted to 0.06.

On to A6U C23G A39U, for which the self-cleavage was found to be 0.25.

On to A6U A11C G27U, for which the self-cleavage stood at 0.

A6U A41G C45G: the self-cleavage came to 0.14.

With A6U G7U A41U U43G, the self-cleavage turned out to be 0.19.

For the variant A6G U9C C18G, the self-cleavage was 0.02.

A6U C23A A25G U38C: the self-cleavage is 0.53.

A6U C8G A12G G21U C42A: the self-cleavage stood at 0.23.

Turning to A6U C10A G17A G22A G30U G40U, the self-cleavage was 0.

Regarding A6U C8U C10A, the self-cleavage amounted to 0.03.

For the variant A6U C8A A24U G29U, the self-cleavage worked out at 0.58.

A6G U28G G30A: the self-cleavage is 0.14.

In the case of A6U C13G C31A, the self-cleavage came out at 0.17.

In the case of A6G U28A C42U, the self-cleavage is 0.01.

A6U C37U G44U C45A: the self-cleavage was determined as 0.13.

For the variant A6U A14C C37U A39U A41C, the self-cleavage was determined as 0.01.

As to A6U C8U G40C, the self-cleavage came to 0.12.

Take A6G G36A A41C: the self-cleavage amounted to 0.04.

A6U C15U A24U U32C C37G A39G: the self-cleavage was found to be 0.1.

In the case of A6U C8A G33U G40U, the self-cleavage worked out at 0.18.

In the case of A6U C18A G19C U20C C45U, the self-cleavage came out at 1.28.

As to A6U A16C C45A, the self-cleavage amounted to 0.06.

Regarding A6U C8A G19C, the self-cleavage was determined as 0.09.

In the case of A6U C10G G17C C23U A25U G40U, the self-cleavage was found to be 0.01.

As for A6U A14C U38A C42G, the self-cleavage was found to be 0.05.

Consider A6U A26U G27U G30U U32G G36U U38A, for which the self-cleavage was determined as 0.07.

Regarding A6U C18G A39U, the self-cleavage was 0.17.

For A6U C15A G40C C42U, the self-cleavage worked out at 0.39.

With A6U G17A U32A G36C U38C, the self-cleavage came to 0.01.

Consider A6U A12G A14C G44U, for which the self-cleavage amounted to 0.08.

On to A6U G17U G30C G40C G44U C46G, for which the self-cleavage was found to be 0.

For A6U A12C A25G G29A, the self-cleavage was found to be 0.02.

Regarding A6G U20C C45G, the self-cleavage came to 0.03.

Consider A6U A16C U20A G21U G33A, for which the self-cleavage is 0.08.

As for A6U C8G A14C A16U A26C C42G, the self-cleavage amounted to 0.

Regarding A6U C8U C23U G35A U38G G40C, the self-cleavage was determined as 0.02.

As for A6U C10U C42A, the self-cleavage came to 0.04.

Regarding A6G U20A G33U, the self-cleavage came to 0.03.

Take A6U G19A G21C: the self-cleavage was 0.4.

As for A6U C15A G21C, the self-cleavage is 0.15.

Turning to A6U C13G C31A G33A, the self-cleavage amounted to 0.11.

For A6U C13G G29C G33C, the self-cleavage came to 0.08.

Turning to A6U C10A A14U, the self-cleavage is 0.06.

In the case of A6U C10A A14C, the self-cleavage is 0.02.

For A6U A12G G19U G40A, the self-cleavage is 0.05.

For the variant A6G G40C C46U, the self-cleavage stood at 0.08.

As for A6G U28G G33U C37G, the self-cleavage worked out at 0.07.

As to A6U C10G A11C U20G, the self-cleavage was found to be 0.03.

For A6U A11G C42U, the self-cleavage was determined as 0.

For the variant A6U C13A G17A G19A A24G U28G C31G, the self-cleavage came out at 0.1.

With A6G U9C A26G, the self-cleavage is 0.03.

As for A6U C15A C42A, the self-cleavage is 0.07.

As to A6U C8A G19U G27C A41C C45G, the self-cleavage was 0.11.

Consider A6U A11G U43C, for which the self-cleavage was determined as 0.03.

For A6G U9A A16U, the self-cleavage came to 0.01.

On to A6U C10G C18A A25U G36U, for which the self-cleavage amounted to 0.02.

In the case of A6U A11G G21A C31G G36U C46G, the self-cleavage was determined as 0.02.

In the case of A6U A26U G29U G33U U34C C42G, the self-cleavage is 0.08.

Regarding A6U C18U A25G, the self-cleavage was 0.11.

Take A6U C18U G21A C37U: the self-cleavage came to 0.04.

For A6U C8A G19U C31A, the self-cleavage is 0.02.

Regarding A6G U9G A24U, the self-cleavage came to 0.12.

Turning to A6G G36A C46A, the self-cleavage came to 0.12.

As for A6U C15A U20C, the self-cleavage amounted to 0.03.

Regarding A6U A24C G30C, the self-cleavage stood at 0.41.

Turning to A6U C8U A12C G17C G19C, the self-cleavage worked out at 0.

On to A6U C8U G22A A25C, for which the self-cleavage was 0.08.

Take A6U C8U A12U U28G U38C: the self-cleavage was 0.28.

Regarding A6G U9G A41C, the self-cleavage is 0.14.

A6G U38G G44U: the self-cleavage was 0.02.

In the case of A6U C10G G35C G40A, the self-cleavage was found to be 0.01.

As for A6U C23A A24G A25C, the self-cleavage was 0.51.

As to A6U C8U C13U G30C G40A, the self-cleavage was found to be 0.28.

As for A6G U20A C45A, the self-cleavage stood at 0.27.

In the case of A6U A14G C15A, the self-cleavage came out at 0.01.

In the case of A6U A14U A24C G27U G44A, the self-cleavage was determined as 0.03.

With A6U C23U A26G G30U C37U, the self-cleavage was 0.05.

A6U C8A G21U G35U C45G: the self-cleavage is 0.11.

In the case of A6U G17A C37A, the self-cleavage stood at 0.02.

In the case of A6U A11U C15U G40C, the self-cleavage was determined as 0.01.

Take A6U C15A A16C C46A: the self-cleavage amounted to 0.02.

As for A6U C31G G33U, the self-cleavage was 0.1.

With A6U A14U C15G C31A A39C, the self-cleavage amounted to 0.

Turning to A6U A16U C31A A41U, the self-cleavage turned out to be 0.02.

In the case of A6U A11G G21C, the self-cleavage is 0.01.

Regarding A6G U20C A26U C46U, the self-cleavage came to 0.12.

For A6G U9C U20C, the self-cleavage was found to be 0.02.

As to A6U C8G G21U A39C, the self-cleavage came out at 0.05.

Turning to A6U A16G C31G A41G, the self-cleavage came to 0.

In the case of A6U C10A C18U G21C G29U G30C, the self-cleavage amounted to 0.02.

Take A6U A14U A25G A41G: the self-cleavage is 0.23.

As for A6U A14G C18U G33A C46U, the self-cleavage amounted to 0.01.

Regarding A6U A25U C45A, the self-cleavage was found to be 0.88.

Take A6G U9G G35U G36A G40C: the self-cleavage came to 0.03.

Consider A6U G7C C23U A24U G30A, for which the self-cleavage worked out at 0.36.

Consider A6U C8G U9G, for which the self-cleavage worked out at 0.03.

For A6U G7C A12G A14C G35U A39C, the self-cleavage was found to be 0.09.

Take A6U A25U C31U C45U: the self-cleavage worked out at 0.84.

For A6U C23U A39G C46A, the self-cleavage came to 0.05.

As for A6U C15A G29C, the self-cleavage amounted to 0.53.

A6U G19A G21A U28C: the self-cleavage was 1.13.

In the case of A6U C23G A41C, the self-cleavage is 0.05.

For A6G U32G C46A, the self-cleavage came to 0.08.

A6U A41G U43A: the self-cleavage turned out to be 0.09.

Turning to A6U G7A G44U, the self-cleavage came to 0.55.

For A6G U38C C45G, the self-cleavage came out at 0.06.

In the case of A6U C13G G35C, the self-cleavage turned out to be 0.54.

In the case of A6U A12U G21A, the self-cleavage is 0.27.

As to A6U C15A G17C G33U, the self-cleavage amounted to 0.02.
